# Assay results: the supplement of paper PMC11417369
# Some of the results follow.
# Test system: PfAP2-HC AP2 domain (GST-tagged)
# Test: gcPBM binding intensity (ln(normalized median fluorescence intensity)); higher = stronger DNA binding
# How it was run: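 In this array assay, P. falciparum DNA-binding domains with a GST tag, expressed in E. coli, were applied for 1 h to primer-extended double-stranded 36-bp intergenic genomic probes and negative controls on an Agilent 4 × 180k array. Bound protein was visualised with Alexa488 anti-GST antibody at 488 nm. Binding intensity is the highest Masliner-normalised natural-log median intensity across replicate spots of either probe orientation.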
row,Sequence,gcPBM binding intensity (ln)
1,TATGACCTTAGTAATTGTACACAAACATATTAATAT [XGTACX_site3340],9.71
2,GAGTATATGATATATATATATATATAAAAAAAAAAA [GTGCAC_negctrl_site99],10
3,TTGAGTTGTATAAAAAGTACAAGGTTTTAACTAAAT [XGTACX_site1447],9.64
4,TTATAATATTCATAAGGTACAGTTTATATATGTTAT [XGTACX_site8442],9.61
5,ATATATATTATATGCACACTAATAAGACTATTTAAA [CACACA_site3554],9.66
6,GTATATGTACTATACGCACACACACCCACATATATA [CACACA_site9062],10.3
7,TGGTATATTATTTTTTGTACACATAAATGAAACATT [XGTACX_site5345],9.62
8,GTACCTATTTCATACACACACACACGCAAACAAACA [CACACA_site6590],11.1
9,ATATAGATTCGACACACACACAAAAAAAAAAAAAAA [CACACA_site7677],10.1
10,CGTATATCACCAACTAGTACATATAAATAAATAAAT [XGTACX_site8837],9.67
11,ATATATATATATATATGTACATATTATTATTTTGAT [XGTACX_site4752],9.68
12,ATATATATAATAAACACACACATATACATAGATGTA [CACACA_site5841],10.2
13,TGGTCTTTTAAACAAAAATATAAATTTTTAAATATG [CACACA_negctrl_site392],9.24
14,AAGAAAATTGTCTGAAGTACAAAACATTAATAATAT [XGTACX_site4864],9.73
15,AATTTAATATAATGCACACATAAAAAAAAAAAATTC [CACACA_site1504],9.94
16,AGCTTGTGGATGCAGGTGCTACATTTGTTCTATAAT [GTGCAC_site9645],9.77
17,TATAAAAATATTTCTACACACATTAAAATATATATA [CACACA_site4770],9.62
18,AATGAAAGGATGCTGTGTACATATATATATATATAT [XGTACX_site7901],10.3
19,CATTTGCCCAGGCACACACACATAAAAAGAAAAATA [CACACA_site356],10.2
20,TTTTTTTTGTGTTCAAGTACAAAATTTTAAAGGTCA [XGTACX_site4011],9.26
21,GGTTATTTCACAGAATGTACTTATTATATATAAAAT [XGTACX_site8886],9.59
22,TATATATATATATAAGCACACAAACAAAAAAAATTA [CACACA_site9293],9.81

row,Sequence,gcPBM binding intensity (ln)
1,AAGATAAATTATTATAAATCAATTGTGCCAACAATA [CACACA_negctrl_site144],9.53
2,AATATAAATAAAAACACACACACACCGATATATATA [CACACA_site5283],10.8
3,AAGATTAGGTTAATTAGTACTTATTATATTGTAATG [XGTACX_site3653],9.36
4,GATCCATTATTGATCCGTACTTATTCATGTTATATA [XGTACX_site5946],9.77
5,TGTTATAAGATTTATGTACACACATATACACCCCTC [CACACA_site8141],10.1
6,TATATATGTATATATACACACAACGGTTATAAATAT [CACACA_site1128],9.86
7,TATATATATATATGTATGCACTTTAATTTTATAAGG,9.43
8,AATGTGTAGACACGCACACACAAAAAAATATATATA [CACACA_site5595],10.7
9,AATGTAGAAATGGGTGCACACACATATATAATATAT [CACACA_site8799],10.1
10,GTTTTATTTTCAATGTGTACTTATTATTTGATATAC [XGTACX_site6402],9.96
11,TAATTTTTTTTAATAACACACATATAAATATAAATA [CACACA_site6521],9.31
12,CATTTGCACCCGCACACACACATAAAAAGAAAAATA [CACACA_site4350],11.1
13,GAAACAATTTGATATTGTACATAAATAAATAAAAAC [XGTACX_site8869],9.75
14,CATATTATTATTTTGGTGCATACTTATATATATTTT,9.85
15,GTACCTATTTCATACACACACACACCCAAACAAACA [CACACA_site976],10.5
16,AACATTGATAAATATAAACACACGAAAACAGACATA [CACACA_site490],10.3
17,CTTGTACCTAGAAATACACACAATTCTATAACTTAT [CACACA_site7355],9.79
18,AATTTACATATATATTGTACATTTATGTATATATAT [XGTACX_site4186],9.87
19,TAATATTTTTTGTGTACACATATATATATATATATA [CACACA_site5504],9.77
20,TACTTATATTGAAATGGTACAGATAAAAAAAAAAAA [XGTACX_site1407],9.51
21,TTTTGTAATGTGAATATTTGTATATTATTTGTATAT [CACACA_negctrl_site1677],9.68
22,ACATTCTATCTAAGTACACACATTAATTTTTTTTTT [CACACA_site4106],9.9

row,Sequence,gcPBM binding intensity (ln)
1,ATCTTATATCGTAGAGATTTTTTTTTTTTTTCATTT [XGTACX_negctrl_site140],9.53
2,AATTTCTTCTTAGGGTGTACAATTTGACATAAGGAA [XGTACX_site1773],9.39
3,GTAATATATATTAAGTAATAGTTTATCTTAGGAAAA [TGCATGCA_negctrl_site302],9.73
4,AATTAGATGGATAAATGTACATATGTGAATATATTT [XGTACX_site85],9.85
5,GTGCCCTTTTTAATAACATGCAAATAACATATTTAT [TGCATGCA_site709],9.82
6,AAAAAAAAAAAAAACACACAAACATCAAATTATTAT [CACACA_site1838],10.4
7,TTTATATTATACGCACTAATATATATATATATATAT [TGCATGCA_negctrl_site47],9.75
8,ATATAACACAAGGGCACACATATACCTTTCCTTTTT [CACACA_site412],9.9
9,CTTCTTGTAAAATTTGCATGTAATTAAAAGAGAATG [TGCATGCA_site484],9.33
10,GCCTTTTAGTATTTCACACACGTAAATGAGTATATC [CACACA_site4748],9.96
11,TTCCCTATCTTTTCAGTGCATTTTGTTTCCTACCTT [GTGCAC_site9813],9.76
12,ATAAAATTTATGACTTGTACATGTAAATAAAATATA [XGTACX_site762],9.73
13,TTTAAATATATATATTGTACAAAAAAAAATAATAAA [XGTACX_site4759],9.59
14,TGTAGAACTCAATATTGTACATTATATAAAATGGGA [XGTACX_site3857],9.59
15,ATATATATATATTGTACACACATTTATGCATATATA [CACACA_site5738],10.2
16,TTTTTTTGCATTTCATGTACATATATTGAGCTTAAA [XGTACX_site8485],9.6
17,ATATTACAGTACAATACATGCATATGGAAAAAAAAA [TGCATGCA_site72],9.81
18,ATAAAGAATATAAATACACACTTAAATATAGATTAT [CACACA_site7804],9.91
19,ATTGGTTCCCCTCTCTTTTCAATATATTTTTTTTTT [XGTACX_negctrl_site259],9.69
20,GATATAGGGCGTATGTTAATCGTGAAAGAGTGTCTT [GTGCAC_negctrl_site102],9.63
21,TTCAAATGATTTATGTGTACATAAAATTATTTTTTA [XGTACX_site107],9.48
22,AAAAAATTAAAAATCACACATAAATATATATAAAAA [CACACA_site4192],9.69

row,Sequence,gcPBM binding intensity (ln)
1,TAATGAAGCTTATGCACACGTTCATTATTTATATTA [CACACA_site3219],9.66
2,ATTTATATTACCCTTGCATGTAGGTGCAATTTTTTT [TGCATGCA_site757],9.88
3,CATTTTGTTTTAAAGTGTACATTATGTAATATAAAA [XGTACX_site647],9.33
4,TTTTTATAGGTAAAAACACACGCTAAAAATAATTAA [CACACA_site3731],9.53
5,AATAAATATATATTCACACACAAACATATATATATA [CACACA_site4023],10
6,AAATAAATAAATAAATAAACAAATATGTATAAATGG [XGTACX_negctrl_site153],10.2
7,AGGTACTTTTTTAAAACACACATATAATAAATACAC [CACACA_site4730],9.81
8,TCAACTATCAATATAGTGCATTTTTTTTGGAAAACC [GTGCAC_site9927],9.34
9,TATCAAAATTAGTATACACACAAAATTAATCAAATA [CACACA_site7117],9.86
10,ATAAGATTAAACATTGCACACAGAAATATATTTTCT [CACACA_site8743],9.97
11,TATATATATATATATTGTACATATGTAACCTTTTAA [XGTACX_site3914],9.55
12,CCTATATAATATATTTGTACTTAATAATTAAAGTGT [XGTACX_site5151],9.56
13,TTTTTTAGATTACATAAATATAAATATAAATATATA [GTGCAC_negctrl_site459],9.13
14,TAAAATAAAAATTTATGTACACATAAAAAAACAAAA [XGTACX_site1112],9.75
15,GAGAGTACCTATATTGCATGCAGACTTTTTAAATAT [TGCATGCA_site564],9.65
16,TTTTTTTTTTTTTGTAGTACATTATGTATATTTTTA [XGTACX_site7810],9.55
17,TTAATAAGAGAGCAATAGGTGGACTGTTTCTTTTAT [CACACA_negctrl_site1239],9.72
18,GTTAAAATAATATGGTGTACAAATATATAAGTTCAT [XGTACX_site3262],9.83
19,ATATATATATATAAAAGTACTTATTTTTATTTACAT [XGTACX_site4299],9.76
20,AAAAATATAATATATCTAAAATTTTTCATTAAATAT [XGTACX_negctrl_site274],9.52
21,ACATATATATATTTATATATATATATATATATGTGA [CACACA_negctrl_site613],9.47
22,ATAAATAAAAATACATGAACAGGTCAGGTTATTTTT [CACACA_negctrl_site1007],9.61
